The text below walks through data of the supplement of paper PMC7125110.

B1: glmS ribozyme (parent)
chain: AUAAAAGCGCCAGAACUACAGAAAUGUAGUUGACGAGGAGGAGGUUUAUCGAAUUUUCGGCGGAUGCCUCCAAA

Holding throughout (conditions): with glucosamine-6-phosphate
The variants in data set [1] derive from B1. The data set can be described thus: self-cleavage kobs at 40 uM GlcN6P; higher = faster cleavage; RNA array. In short, it runs like this: (§1)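 Over ~14 h at 37 °C, tiles were imaged as glucosamine-6-phosphate (40 μM to 10 mM) in HEPES/KCl/Mg(OAc)2 buffer flowed across sequenced MiSeq chips. The chips carried barcoded ribozyme variants transcribed in situ by E. coli RNA polymerase and tracked with a hybridised Cy3 probe. After normalisation to baseline and to non-cleaving reference variants, one- or two-exponential decay fits of per-tile medians gave kobs. kcat and KM followed from weighted Michaelis–Menten fits across concentrations.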

Data set [2] covers variants of B1. Kind of data set: self-cleavage kobs at 640 uM GlcN6P; higher = faster cleavage; RNA array. In a few lines: as §1
Variants of B1 are the subject of data set [3]. The data set can be described thus: self-cleavage kobs at 2500 uM GlcN6P; higher = faster cleavage; RNA array. In short, it runs like this: as §1
In data set [4] the parent is B1. Kind of data set: self-cleavage kobs at 10000 uM GlcN6P; higher = faster cleavage; RNA array. In short, it runs like this: as §1
Data set [5] covers variants of B1. The data set can be described thus: self-cleavage kobs at 160 uM GlcN6P; higher = faster cleavage; RNA array. In a few lines:
as §1

± gives the standard error. Variants at the floor of the assay are shown more often than the library holds them. Bounds are passed on as bounds.

As for U54G, the “self-cleavage kobs at 40 uM GlcN6P” value with glucosamine-6-phosphate [1] is 0.00117 ± 3.8e-05 s⁻¹.
Regarding G7U C8G, in the data set with glucosamine-6-phosphate [2], the “self-cleavage kobs at 640 uM GlcN6P” value was < 1e-05 s⁻¹. The “self-cleavage kobs at 2500 uM GlcN6P” value in the data set with glucosamine-6-phosphate [3] was < 1e-05 s⁻¹. The “self-cleavage kobs at 10000 uM GlcN6P” value with glucosamine-6-phosphate [4] was < 1e-05 s⁻¹.
In the case of C61G C70U C71U, the “self-cleavage kobs at 40 uM GlcN6P” value with glucosamine-6-phosphate [1] is < 1e-05 s⁻¹. Besides, the “self-cleavage kobs at 10000 uM GlcN6P” value with glucosamine-6-phosphate [4] is < 1e-05 s⁻¹.
In the case of G9A U69A, the “self-cleavage kobs at 640 uM GlcN6P” value with glucosamine-6-phosphate [2] was < 1e-05 s⁻¹. The “self-cleavage kobs at 160 uM GlcN6P” value with glucosamine-6-phosphate [5] is < 1e-05 s⁻¹. For the same variant, the “self-cleavage kobs at 10000 uM GlcN6P” value with glucosamine-6-phosphate [4] is < 1e-05 s⁻¹.
G7U A39C U57G G63C C68U: in the data set with glucosamine-6-phosphate [2], the “self-cleavage kobs at 640 uM GlcN6P” value is < 1e-05 s⁻¹. Further, the “self-cleavage kobs at 2500 uM GlcN6P” value with glucosamine-6-phosphate [3] is < 1e-05 s⁻¹.
For the variant U45A U54G, the “self-cleavage kobs at 40 uM GlcN6P” value in the data set with glucosamine-6-phosphate [1] stood at 0.00129 ± 0.00023 s⁻¹.
For the variant A42U C61G, the “self-cleavage kobs at 40 uM GlcN6P” value with glucosamine-6-phosphate [1] was < 1e-05 s⁻¹. The “self-cleavage kobs at 640 uM GlcN6P” value with glucosamine-6-phosphate [2] is < 1e-05 s⁻¹. Further, the “self-cleavage kobs at 160 uM GlcN6P” value with glucosamine-6-phosphate [5] was < 1e-05 s⁻¹. Further, the “self-cleavage kobs at 2500 uM GlcN6P” value with glucosamine-6-phosphate [3] is < 1e-05 s⁻¹. Further, in the data set with glucosamine-6-phosphate [4], the “self-cleavage kobs at 10000 uM GlcN6P” value is < 1e-05 s⁻¹.
Regarding G9A C50A G60U C67G, the “self-cleavage kobs at 640 uM GlcN6P” value in the data set with glucosamine-6-phosphate [2] is < 1e-05 s⁻¹.
With U49A G59U G60U, in the data set with glucosamine-6-phosphate [1], the “self-cleavage kobs at 40 uM GlcN6P” value is < 1e-05 s⁻¹. In addition, the “self-cleavage kobs at 10000 uM GlcN6P” value in the data set with glucosamine-6-phosphate [4] is < 1e-05 s⁻¹.
As to A6C G44A G66C, in the data set with glucosamine-6-phosphate [2], the “self-cleavage kobs at 640 uM GlcN6P” value is < 1e-05 s⁻¹.
On to C8G U46C, for which the “self-cleavage kobs at 640 uM GlcN6P” value in the data set with glucosamine-6-phosphate [2] is < 1e-05 s⁻¹. The “self-cleavage kobs at 160 uM GlcN6P” value in the data set with glucosamine-6-phosphate [5] was < 1e-05 s⁻¹. The “self-cleavage kobs at 2500 uM GlcN6P” value in the data set with glucosamine-6-phosphate [3] was < 1e-05 s⁻¹.
As for U49A G63C, in the data set with glucosamine-6-phosphate [1], the “self-cleavage kobs at 40 uM GlcN6P” value was < 1e-05 s⁻¹. Also, the “self-cleavage kobs at 640 uM GlcN6P” value with glucosamine-6-phosphate [2] was < 1e-05 s⁻¹. In addition, the “self-cleavage kobs at 10000 uM GlcN6P” value in the data set with glucosamine-6-phosphate [4] was < 1e-05 s⁻¹.
As to G7A G66A, the “self-cleavage kobs at 640 uM GlcN6P” value with glucosamine-6-phosphate [2] is < 1e-05 s⁻¹. For the same variant, in the data set with glucosamine-6-phosphate [5], the “self-cleavage kobs at 160 uM GlcN6P” value is < 1e-05 s⁻¹.
Regarding C8A G9C G29C G35U, the “self-cleavage kobs at 640 uM GlcN6P” value with glucosamine-6-phosphate [2] was < 1e-05 s⁻¹. Besides, the “self-cleavage kobs at 2500 uM GlcN6P” value with glucosamine-6-phosphate [3] was < 1e-05 s⁻¹.
Regarding A48U G60C, in the data set with glucosamine-6-phosphate [1], the “self-cleavage kobs at 40 uM GlcN6P” value was < 1e-05 s⁻¹. For the same variant, the “self-cleavage kobs at 640 uM GlcN6P” value in the data set with glucosamine-6-phosphate [2] was < 1e-05 s⁻¹. Moreover, in the data set with glucosamine-6-phosphate [5], the “self-cleavage kobs at 160 uM GlcN6P” value is < 1e-05 s⁻¹. For the same variant, in the data set with glucosamine-6-phosphate [3], the “self-cleavage kobs at 2500 uM GlcN6P” value was < 1e-05 s⁻¹. Also, in the data set with glucosamine-6-phosphate [4], the “self-cleavage kobs at 10000 uM GlcN6P” value was < 1e-05 s⁻¹.
In the case of G51U G66U, the “self-cleavage kobs at 40 uM GlcN6P” value with glucosamine-6-phosphate [1] is < 1e-05 s⁻¹. Besides, the “self-cleavage kobs at 640 uM GlcN6P” value with glucosamine-6-phosphate [2] is < 1e-05 s⁻¹.
As to G7A U31G G41U C68U, the “self-cleavage kobs at 640 uM GlcN6P” value with glucosamine-6-phosphate [2] was < 1e-05 s⁻¹.
Regarding A6G A39U C68G, the “self-cleavage kobs at 640 uM GlcN6P” value with glucosamine-6-phosphate [2] was < 1e-05 s⁻¹. Further, the “self-cleavage kobs at 2500 uM GlcN6P” value in the data set with glucosamine-6-phosphate [3] is < 1e-05 s⁻¹.
Consider A6G C10U G13U A48G U54A U57C U69C, for which, in the data set with glucosamine-6-phosphate [2], the “self-cleavage kobs at 640 uM GlcN6P” value was < 1e-05 s⁻¹.
On to G59A G60A, for which, in the data set with glucosamine-6-phosphate [1], the “self-cleavage kobs at 40 uM GlcN6P” value was < 1e-05 s⁻¹. Further, the “self-cleavage kobs at 640 uM GlcN6P” value with glucosamine-6-phosphate [2] was < 1e-05 s⁻¹. Moreover, the “self-cleavage kobs at 160 uM GlcN6P” value with glucosamine-6-phosphate [5] is < 1e-05 s⁻¹. The “self-cleavage kobs at 10000 uM GlcN6P” value with glucosamine-6-phosphate [4] is < 1e-05 s⁻¹.
As for A6G C11U U56G C61G, the “self-cleavage kobs at 640 uM GlcN6P” value with glucosamine-6-phosphate [2] is < 1e-05 s⁻¹. For the same variant, in the data set with glucosamine-6-phosphate [3], the “self-cleavage kobs at 2500 uM GlcN6P” value was < 1e-05 s⁻¹.
As to G7C A14U C16G U30A U56A C67G, the “self-cleavage kobs at 640 uM GlcN6P” value with glucosamine-6-phosphate [2] was < 1e-05 s⁻¹. In the data set with glucosamine-6-phosphate [5], the “self-cleavage kobs at 160 uM GlcN6P” value is < 1e-05 s⁻¹.
With C58A U65A, the “self-cleavage kobs at 40 uM GlcN6P” value with glucosamine-6-phosphate [1] was < 1e-05 s⁻¹.
Take A6U C8G A48U C70G: the “self-cleavage kobs at 640 uM GlcN6P” value in the data set with glucosamine-6-phosphate [2] was < 1e-05 s⁻¹.
Take A48U U54C C70A: the “self-cleavage kobs at 40 uM GlcN6P” value in the data set with glucosamine-6-phosphate [1] is < 1e-05 s⁻¹.
For the variant U45A C61A, the “self-cleavage kobs at 40 uM GlcN6P” value with glucosamine-6-phosphate [1] is < 1e-05 s⁻¹. For the same variant, in the data set with glucosamine-6-phosphate [2], the “self-cleavage kobs at 640 uM GlcN6P” value was < 1e-05 s⁻¹. The “self-cleavage kobs at 2500 uM GlcN6P” value with glucosamine-6-phosphate [3] was < 1e-05 s⁻¹.
Consider G7U A33G U56G, for which the “self-cleavage kobs at 640 uM GlcN6P” value with glucosamine-6-phosphate [2] was < 1e-05 s⁻¹.
For the variant G59U G62U, the “self-cleavage kobs at 40 uM GlcN6P” value with glucosamine-6-phosphate [1] is < 1e-05 s⁻¹. The “self-cleavage kobs at 2500 uM GlcN6P” value with glucosamine-6-phosphate [3] is < 1e-05 s⁻¹. Also, the “self-cleavage kobs at 10000 uM GlcN6P” value with glucosamine-6-phosphate [4] was < 1e-05 s⁻¹.
